{"source": "PubChem BioAssay AID686971", "about": "(National Center for Advancing Translational Sciences (NCATS), 2013)", "note": "Out of some 360,000 compounds screened, about 7,500 (2.1%) were called active. The inconclusive results got no clear call from the source; some entries with a clear call stand among them for comparison. The call rests on the fitted dose curve; in most records, active means well fitted cell-killing curve with a large enough effect; inconclusive means small, poorly fitted or top-dose-only effect, or effect the other way, or another doubt; inactive means no such curve, though single readings can be large or run the other way. No potency is given beside an inconclusive call; the fits are too rough. Potency means the concentration at half of the fitted maximal effect; tags describe the fitted curve by direction and shape."}
{"assay": "qHTS for induction of synthetic lethality in tumor cells producing 2HG: qHTS for the HT-1080-IDH1KD cell line", "settings": "HT-1080 IDH1 knockdown viability, ATP luminescence, 48 h; series mostly up to 46.1 µM", "outline": "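Luminescent ATP read-out (CellTiter-Glo, 10 min at room temperature) after 48 h compound exposure at 37 °C gave viability of IDH1-knockdown HT-1080 cells. Activity was normalised to DMSO and cell-free wells, then fitted as concentration-response curves.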"}
{"smiles": "Cc1cc(C)nc(NC(=S)Nc2ccc(Br)cc2Cl)c1", "Potency": "inactive"}
{"smiles": "Clc1ccc(Cn2c(-c3cccnc3Cl)nc3ccccc32)c(Cl)c1", "Potency": "inconclusive [cytotoxic, single point]"}
{"smiles": "COc1ccc(C(=O)c2c(C)c3ccccc3n2CC(O)CNC(C)C)cc1", "note": "(centres undefined)", "Potency": "inconclusive [cytotoxic, partial curve]"}
{"smiles": "CCCCCCCCN1C(=O)[C@H](CC(=O)NCc2ccccc2)C[C@@]2(C(=O)OC)CC(C)(C)CC=C12", "Potency": "inconclusive [cytotoxic, single point]"}
{"smiles": "CCc1ccc(OCCNc2cc(N3CCNC(C)C3)ccc2[N+](=O)[O-])cc1", "note": "(centres undefined)", "Potency": "inconclusive [cytotoxic, single point]"}
{"smiles": "Cc1cc2cc(CN(CCCN3CCOCC3)C(=O)NC3CCCCC3)c(=O)[nH]c2cc1C", "Potency": "inconclusive [cytotoxic, single point]"}
{"smiles": "O=C(CP(=O)(c1ccccc1)c1ccccc1)N/N=C/c1cc(Br)cc(Br)c1O", "Potency": "inconclusive [cytotoxic, single point]"}
{"smiles": "CCN(CC(=O)Nc1c(F)cccc1F)C(=O)c1ccc(S(=O)(=O)N2CCCCCC2)cc1", "Potency": "inactive"}
{"smiles": "Cn1c(N)c(C(=O)CSc2ccc3c(c2)OCCO3)c(=O)n(C)c1=O", "Potency": "inactive"}
{"smiles": "COc1cc(OC)cc(C2=Cc3ccc(OC)cc3C(CC(C)=O)N2c2ccc(C#CC3(O)CCCCC3)cc2)c1", "note": "(centres undefined)", "Potency": "inactive"}
{"smiles": "O=C1OC(c2ccc(Br)cc2)=N/C1=C\\c1ccco1", "Potency": "inactive"}
{"smiles": "CCC(C(=O)NC1CCCC1)N(Cc1cccs1)C(=O)Cn1nnc(-c2ccc(OC)c(OC)c2)n1", "note": "(centres undefined)", "Potency": "inactive"}
{"smiles": "COc1ccc2c(c1OC)C(=O)OC2Nc1nc(-c2ccccc2)cs1", "note": "(centres undefined)", "Potency": "active: 10.3 µM"}
{"smiles": "CN1CCN(c2nc(-c3cccc([N+](=O)[O-])c3)nc3ccccc23)CC1", "Potency": "inconclusive [cytotoxic, partial curve, poor fit]"}
{"smiles": "O=C(c1cc(COc2cccc3cnccc23)on1)N1CCCC(CCCO)C1", "note": "(centres undefined)", "Potency": "inconclusive [cytotoxic, full curve]"}
{"smiles": "Cn1cnc(C(=O)NCc2ccc(CNC(=O)OC(C)(C)C)cc2)c1C(=O)NCc1ccc(CNC(=O)OC(C)(C)C)cc1", "Potency": "inactive"}
{"smiles": "N#Cc1ccc(CN2CCN(C(=O)c3ccc(S(=O)(=O)NCc4ccco4)cc3)CC2)cc1", "Potency": "inactive"}
{"smiles": "COc1ccc(Cc2nnc(NC(=O)Nc3ccccc3F)s2)cc1OC", "Potency": "inconclusive [cytotoxic, single point]"}
{"smiles": "O=C(Nc1ccon1)c1ccc(Cl)s1", "Potency": "inconclusive [rising, single point]"}
{"smiles": "CC(C)(C)c1ccc(C(=O)NCCC(=O)NCc2ccco2)cc1", "Potency": "inconclusive [cytotoxic, single point]"}
{"smiles": "CCOC(=O)C1Nc2ccccc2C2C(O)C(O)CC12", "note": "(centres undefined)", "Potency": "inconclusive [cytotoxic, single point]"}
{"smiles": "Cc1ccsc1C(=O)OCC(=O)Nc1sccc1C(N)=O", "Potency": "inactive"}
{"smiles": "O=C(c1ccc(Cl)cc1)C(CN1CCCCC1)c1ccccc1", "note": "(centres undefined)", "Potency": "active: 2.59 µM"}
{"smiles": "COc1cc(/C=N/NC(=O)C2c3ccccc3Oc3ccccc32)ccc1O", "Potency": "inactive"}
{"smiles": "CCOC(=O)N1CCN(c2cc(NCCC(=O)O)c3c4c(onc24)-c2ccccc2C3=O)CC1", "Potency": "inconclusive [cytotoxic, single point]"}
{"smiles": "COc1cccc2cc(C(=O)NCc3ccc(Cl)cc3)c(=N)oc12", "Potency": "inactive"}
{"smiles": "COc1cccc(-c2cnc(C(O)c3ccc(C(C)(C)C)cc3)[nH]2)c1", "note": "(centres undefined)", "Potency": "inconclusive [cytotoxic, single point]"}
{"smiles": "Cc1ccc(NC(=O)C(=Cc2ccc(C(=O)O)cc2)C(=O)Nc2ccc(C)cc2C)c(C)c1", "Potency": "active: 11.6 µM"}
{"smiles": "O=C(NC12CC3CC(CC(C3)C1)C2)c1ccc(Br)o1", "Potency": "inactive"}
{"smiles": "Cc1cccc(NC(=O)c2cc3n(n2)C(C(F)(F)F)CC(c2ccc4c(c2)OCO4)N3)c1", "note": "(centres undefined)", "Potency": "inconclusive [cytotoxic, single point]"}
{"smiles": "COc1ccc2cc(CN(Cc3ccco3)Cc3nnnn3C3CCCCC3)c(=O)[nH]c2c1", "Potency": "inconclusive [cytotoxic, single point]"}
{"smiles": "CCOC(=O)C/C(C)=N/NC(=O)c1cccs1", "Potency": "inconclusive [cytotoxic, single point]"}
{"smiles": "Cc1cc(Cl)ccc1OC(C)C(=O)Nc1ccc(S(=O)(=O)N2CCOCC2)cc1", "note": "(centres undefined)", "Potency": "inconclusive [cytotoxic, partial curve]"}
{"smiles": "CCc1cccc(OCC(=O)Nc2ccc(C(=O)O)cc2NC(=O)COc2cccc(CC)c2)c1", "Potency": "inconclusive [cytotoxic, single point]"}
{"smiles": "CCc1nnc(NC(=O)CSc2nnc(-c3ccccc3O)o2)s1", "Potency": "inconclusive [cytotoxic, single point]"}
{"smiles": "CC(O)(c1cccnc1)c1nc(-c2cccc(C(F)(F)F)c2)cs1", "note": "(centres undefined)", "Potency": "inconclusive [cytotoxic, single point]"}
{"smiles": "Cc1ccc(NC(=S)N2CCCC(CO)C2)c(C)c1", "note": "(centres undefined)", "Potency": "inactive"}
{"smiles": "CCOc1cccc2sc(N(CCCN(C)C)C(=O)c3ccc(S(=O)(=O)N(C)c4ccccc4)cc3)nc12", "Potency": "inconclusive [cytotoxic, single point]"}
{"smiles": "CC1CN(C(=O)CSc2nnc(-c3ccncc3)n2-c2ccccc2)CC(C)O1", "note": "(centres undefined)", "Potency": "inconclusive [rising, single point]"}
{"smiles": "c1ccc(-c2nc(NCc3cccs3)c3ccccc3n2)cc1", "Potency": "inconclusive [cytotoxic, single point]"}
{"smiles": "COc1cccc(-c2cnc3c(NC=O)cc(-c4ccccc4Oc4ccccc4)cn23)c1", "Potency": "inconclusive [cytotoxic, single point]"}
{"smiles": "O=C(CSc1cccc2cccnc12)Nc1ccc(S(=O)(=O)N2CCOCC2)cc1", "Potency": "inconclusive [cytotoxic, single point]"}
{"smiles": "NNC(=O)c1ccc(N2CCCCCC2)c([N+](=O)[O-])c1", "Potency": "inconclusive [cytotoxic, single point]"}
{"smiles": "Cc1cc(F)ccc1-c1cc(C(=O)NCc2ccc(C(F)(F)F)cc2)[nH]n1", "Potency": "inconclusive [cytotoxic, single point]"}
{"smiles": "Oc1c(Br)cc(Br)cc1C=NCc1ccccc1", "Potency": "inconclusive [cytotoxic, single point]"}
{"smiles": "COc1ccc(S(=O)(=O)NCc2ccccn2)cc1NC(=O)c1ccccc1C", "Potency": "inconclusive [cytotoxic, full curve]"}
{"smiles": "COc1ccc(-n2c(-c3ccc(Br)cc3)c[n+]3c2CCC3)cc1", "Potency": "inconclusive [cytotoxic, partial curve]"}
{"smiles": "CC1C(=O)N(Cc2cn(CCC3OCCO3)nn2)CCS(=O)(=O)N1Cc1ccc(-c2ccc(F)nc2)cc1", "note": "(centres undefined)", "Potency": "inactive"}
{"smiles": "c1ccc(CCNc2nc(-c3ccncc3)nc3ccccc23)cc1", "Potency": "active: 4.11 µM"}
{"smiles": "Cc1nc2c(OCc3ccc(OC(F)F)cc3)cccn2c1N(C)C(=O)CCC1CCCC1", "Potency": "inconclusive [cytotoxic, single point]"}
{"smiles": "CCOC(=O)Cn1nc(C)c(NC(=O)c2ccc([N+](=O)[O-])c(C)c2)c1C", "Potency": "inactive"}
{"smiles": "CCOc1ccc(C(=O)NC(=S)Nc2cccc(NC(=O)c3ccco3)c2)cc1[N+](=O)[O-]", "Potency": "inactive"}
{"smiles": "Cc1[nH]c2ccccc2c1/C=N/NC(=O)c1cc(-c2ccncc2)nc2ccccc12", "Potency": "active: 4.61 µM"}
{"smiles": "COc1cc(C2c3cc4c(cc3OC(NCc3ccccc3)C2C)OCO4)cc(OC)c1OC", "note": "(centres undefined)", "Potency": "active: 1.16 µM"}
{"smiles": "CC(c1nc2ccccc2n1Cc1ccccc1)n1c(-c2cnccn2)nc2ccccc21", "note": "(centres undefined)", "Potency": "inconclusive [cytotoxic, single point]"}
{"smiles": "O=[N+]([O-])c1ccc(Cl)c(/C=N/n2c(COc3ccccc3)n[nH]c2=S)c1", "Potency": "inactive"}
{"smiles": "COc1ccc(C2C(C#N)=C(N)Oc3cc(N)ccc32)cc1OC", "note": "(centres undefined)", "Potency": "inconclusive [cytotoxic, single point]"}
{"smiles": "CCCc1cc(-c2n[nH]c(C)c2-c2ccc(C(=O)OCC)o2)c(O)cc1O", "Potency": "inconclusive [cytotoxic, single point]"}
{"smiles": "CCn1c(=O)c(C(=O)Nn2c(C)nc3ccccc3c2=O)c(O)c2ccccc21", "Potency": "inactive"}
{"smiles": "CCC(C)(C)C1CCc2[nH]nc(C(=O)NCc3ccc(OC)cc3)c2C1", "note": "(centres undefined)", "Potency": "inactive"}
{"smiles": "COc1ccc(NC(=O)c2cc3n(n2)C(C(F)(F)F)CC(c2ccc4c(c2)OCO4)N3)cc1OC", "note": "(centres undefined)", "Potency": "inconclusive [cytotoxic, single point]"}
{"smiles": "CN(C(=O)CSc1nnc(-c2ccc(F)cc2)c2ccccc12)C1CCS(=O)(=O)C1", "note": "(centres undefined)", "Potency": "inconclusive [cytotoxic, single point]"}
{"smiles": "CC1(Cc2cccc(F)c2)C(=O)Nc2ccc(OC(F)(F)F)cc21", "note": "(centres undefined)", "Potency": "inconclusive [cytotoxic, single point]"}
{"smiles": "ClC(Cl)(Cl)C1=NCc2nnn(Cc3ccccc3)c2N1", "Potency": "inactive"}
{"smiles": "COc1ccc(/C=N/Nc2cc(N3CCCC3)nc(N3CCCC3)n2)cc1", "Potency": "active: 16.4 µM"}
{"smiles": "CC(=O)c1cc2c(cc1NS(=O)(=O)c1ccc(C)cc1)OCO2", "Potency": "inconclusive [cytotoxic, single point]"}
{"smiles": "CC(=O)Nc1ccc(N2C(C(C)=O)=NN(c3ccc(Cl)cc3)C2c2sccc2C)cc1", "note": "(centres undefined)", "Potency": "active: 7.94 µM"}
{"smiles": "Cc1cc(C)nc(S/C=C/C(=O)c2ccccc2F)n1", "Potency": "active: 2.91 µM"}
{"smiles": "CC(=O)C1=CCC(c2cccc3ccccc23)N(S(=O)(=O)c2ccc(C)cc2)C1", "note": "(centres undefined)", "Potency": "inconclusive [cytotoxic, single point]"}
